# Assay results: the supplement of paper PMC4604168 (melanoma cell lines)
# The other results are listed elsewhere or left out. Single values are uncertain, as repeats are few or missing.
# Assays:
# Experiment in all cases: cell count relative to DMSO control; melanoma cells; higher = more viable cells
# Conditions in all cases: library dose: low library concentration; 72 h
# [1] = test system: MZ2-MEL
# [2] = test system: MeWo
# [3] = test system: RPMI7951
# [4] = test system: RVH-421
# [5] = test system: SkMel28
# [6] = test system: SkMel2
# [7] = test system: SkMel30
# [8] = test system: SkMel5
# [9] = test system: UACC257
# [10] = test system: UACC62
# 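Further: cell number obtained by counting DAPI-stained nuclei in high-throughput microscope images with image analysis software, screen run in 1,536-well plates.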
Compound,cell count [1],cell count [2],cell count [3],cell count [4],cell count [5],cell count [6],cell count [7],cell count [8],cell count [9],cell count [10]
"C[C@@H](Oc1cc(-c2cnn(C3CCNCC3)c2)cnc1N)c1c(Cl)ccc(F)c1Cl [Crizotinib] + Cc1cc(N2CCOCC2)cc2[nH]c(-c3c(NC[C@@H](O)c4cccc(Cl)c4)cc[nH]c3=O)nc12 [BMS536924] (first compound 0.2 µM, partner dose 0.2 µM)",103%,93.2%,103%,112%,100%,95.5%,86.9%,95.1%,85.6%,85.2%
"C=CCNC1=C2C[C@@H](C)C[C@H](OC)[C@H](O)[C@@H](C)/C=C(\C)[C@H](OC(N)=O)[C@@H](OC)/C=C\C=C(/C)C(=O)NC(=CC1=O)C2=O [Tanespimycin] + CC(C)(C)c1cnc(CSc2cnc(NC(=O)C3CCNCC3)s2)o1 [SNS-032] (first compound 0.002 µM, partner dose 0.01 µM)",103%,107%,73.7%,116%,105%,90.8%,113%,95.6%,101%,80.3%
"CNC(=O)c1cc(Oc2ccc(NC(=O)Nc3ccc(Cl)c(C(F)(F)F)c3)cc2)ccn1 [sorafenib] + CCN(CC)CCCCNc1ncc2cc(-c3cc(OC)cc(OC)c3)c(NC(=O)NC(C)(C)C)nc2n1 [PD173074] (first compound 0.4 µM, partner dose 0.1 µM)",95.5%,115%,96.3%,77.3%,110%,100%,122%,90.8%,97.3%,91.3%
"CS(=O)(=O)CCNCc1ccc(-c2ccc3ncnc(Nc4ccc(OCc5cccc(F)c5)c(Cl)c4)c3c2)o1 [lapatinib] + C=CCn1c(=O)c2cnc(Nc3ccc(N4CCN(C)CC4)cc3)nc2n1-c1cccc(C(C)(C)O)n1 [MK1775] (first compound 0.8 µM, partner dose 0.02 µM)",106%,88.1%,94.1%,81.2%,100%,93.6%,92.4%,104%,82.8%,81.4%
"CN1CCN(c2ccc3nc(-c4c(N)c5c(F)cccc5[nH]c4=O)[nH]c3c2)CC1 [Dovitinib] + OCCn1cc(-c2cnc3nnn(Cc4ccc5ncccc5c4)c3n2)cn1 [PF04217903] (first compound 0.1 µM, partner dose 1 µM)",91.6%,88.4%,125%,97.1%,85.8%,93.8%,49.6%,91.9%,94.2%,96.4%
"CN1CCN(c2ccc3nc(-c4c(N)c5c(F)cccc5[nH]c4=O)[nH]c3c2)CC1 [Dovitinib] + Cc1cc([N+](=O)[O-])ccc1NS(=O)(=O)c1cc(Cl)ccc1Cl [FH535] (first compound 0.1 µM, partner dose 1 µM)",83.6%,91.3%,120%,95.4%,85.6%,90.2%,67.3%,87.6%,80.8%,79.5%
"C[C@@H](Oc1cc(-c2cnn(C3CCNCC3)c2)cnc1N)c1c(Cl)ccc(F)c1Cl [Crizotinib] + Cc1ccc(NC(=O)c2cccc(N(C)C)c2)cc1NC(=O)c1ccc(O)cc1 [ZM336372] (first compound 0.2 µM, partner dose 2 µM)",77.4%,97%,101%,87.7%,95.2%,104%,85.6%,81.1%,101%,82.9%
"C[C@@H](Oc1cc(-c2cnn(C3CCNCC3)c2)cnc1N)c1c(Cl)ccc(F)c1Cl [Crizotinib] + CN(NC(=O)CC(=O)NN(C)C(=S)c1ccccc1)C(=S)c1ccccc1 [STA4783] (first compound 0.2 µM, partner dose 0.006 µM)",104%,92.6%,111%,83.5%,98.2%,90.6%,103%,96.2%,89.3%,71.6%
"CS(=O)(=O)CCNCc1ccc(-c2ccc3ncnc(Nc4ccc(OCc5cccc(F)c5)c(Cl)c4)c3c2)o1 [lapatinib] + Cn1cc(/C=C2\C(=O)Nc3cccnc32)c2ccccc21 [GW441756] (first compound 0.8 µM, partner dose 0.4 µM)",91.2%,91.3%,92.5%,132%,81.4%,98.9%,108%,71.7%,54.7%,87.6%
"CN1CCN(c2ccc3nc(-c4c(N)c5c(F)cccc5[nH]c4=O)[nH]c3c2)CC1 [Dovitinib] + CC1(C)NC(=O)N(c2ccc([N+](=O)[O-])c(C(F)(F)F)c2)C1=O [nilutamide] (first compound 0.1 µM, partner dose 1 µM)",94.1%,97.5%,125%,98.2%,89.7%,109%,77%,92.6%,96.4%,93.2%
"CNC(=O)c1cc(Oc2ccc(NC(=O)Nc3ccc(Cl)c(C(F)(F)F)c3)cc2)ccn1 [sorafenib] + O=S(=O)(c1ccccc1)N(CC(F)(F)F)c1ccc(C(O)(C(F)(F)F)C(F)(F)F)cc1 [T0901317] (first compound 0.4 µM, partner dose 1.4 µM)",99.4%,106%,123%,94.8%,98.2%,106%,116%,97.8%,66.8%,93.3%
"CNC(=O)c1cc(Oc2ccc(NC(=O)Nc3ccc(Cl)c(C(F)(F)F)c3)cc2)ccn1 [sorafenib] + O=C(Nc1ccccc1)c1cc([N+](=O)[O-])ccc1Cl [GW9662] (first compound 0.4 µM, partner dose 2 µM)",100%,109%,102%,104%,104%,98.8%,100%,97.4%,85.1%,78.9%
"C[C@@H](Oc1cc(-c2cnn(C3CCNCC3)c2)cnc1N)c1c(Cl)ccc(F)c1Cl [Crizotinib] + COC(=O)c1sccc1S(=O)(=O)Nc1ccc(Nc2ccccc2)cc1OC [GSK0660] (first compound 0.2 µM, partner dose 1 µM)",92.7%,102%,111%,97.4%,80.8%,88.4%,77.3%,104%,104%,81.9%
"CS(=O)(=O)CCNCc1ccc(-c2ccc3ncnc(Nc4ccc(OCc5cccc(F)c5)c(Cl)c4)c3c2)o1 [lapatinib] + CCc1ccc(CCOc2ccc(CC3SC(=O)NC3=O)cc2)nc1 [pioglitazone] (first compound 0.8 µM, partner dose 2 µM)",98%,86.5%,86.9%,82.1%,99.3%,88.5%,83.3%,95.9%,78.4%,96.1%
"CNC(=O)c1cc(Oc2ccc(NC(=O)Nc3ccc(Cl)c(C(F)(F)F)c3)cc2)ccn1 [sorafenib] + Cn1cc(/C=C2\C(=O)Nc3cccnc32)c2ccccc21 [GW441756] (first compound 0.4 µM, partner dose 0.4 µM)",92%,99.5%,85.8%,92.6%,98.1%,106%,91.9%,76.2%,77.8%,84.9%
"CS(=O)(=O)CCNCc1ccc(-c2ccc3ncnc(Nc4ccc(OCc5cccc(F)c5)c(Cl)c4)c3c2)o1 [lapatinib] + N#Cc1c(O)c2c(-c3ccc(-c4ccccc4O)cc3)csc2[nH]c1=O [A769662] (first compound 0.8 µM, partner dose 2 µM)",100%,102%,96.7%,94%,100%,97.9%,93%,119%,97.1%,93%
"C[C@@H](Oc1cc(-c2cnn(C3CCNCC3)c2)cnc1N)c1c(Cl)ccc(F)c1Cl [Crizotinib] + c1cc(-c2cnn3cc(-c4ccc(OCCN5CCCCC5)cc4)cnc23)ccn1 [Dorsomorphin] (first compound 0.2 µM, partner dose 0.4 µM)",99.1%,92.7%,102%,106%,88.1%,109%,83.9%,74.9%,73.3%,77.2%
"CN1CCN(c2ccc3nc(-c4c(N)c5c(F)cccc5[nH]c4=O)[nH]c3c2)CC1 [Dovitinib] + COc1cc2c(Oc3ccc4[nH]c(C)cc4c3F)ncnc2cc1OCCCN1CCCC1 [cediranib] (first compound 0.1 µM, partner dose 0.4 µM)",77.8%,91.1%,113%,95.9%,85.4%,102%,72.4%,90.3%,74.7%,89.4%
"C=CCNC1=C2C[C@@H](C)C[C@H](OC)[C@H](O)[C@@H](C)/C=C(\C)[C@H](OC(N)=O)[C@@H](OC)/C=C\C=C(/C)C(=O)NC(=CC1=O)C2=O [Tanespimycin] + CCCCCCCCCCCC1=C(O)C(=O)C=C(O)C1=O [Embelin] (first compound 0.002 µM, partner dose 1.2 µM)",104%,99.5%,110%,101%,91.1%,102%,95.1%,96.3%,101%,95.2%
"C=CCNC1=C2C[C@@H](C)C[C@H](OC)[C@H](O)[C@@H](C)/C=C(\C)[C@H](OC(N)=O)[C@@H](OC)/C=C\C=C(/C)C(=O)NC(=CC1=O)C2=O [Tanespimycin] + O=C1NC(=O)/C(=C/c2ccc(-c3ccc(F)cc3O)o2)S1 [AS252424] (first compound 0.002 µM, partner dose 1 µM)",103%,116%,96.6%,89.6%,108%,99.1%,85.9%,96.5%,108%,108%
"C=CCNC1=C2C[C@@H](C)C[C@H](OC)[C@H](O)[C@@H](C)/C=C(\C)[C@H](OC(N)=O)[C@@H](OC)/C=C\C=C(/C)C(=O)NC(=CC1=O)C2=O [Tanespimycin] + C[C@@H]1CCN(C(=O)CC#N)C[C@@H]1N(C)c1ncnc2[nH]ccc12 [CP690550] (first compound 0.002 µM, partner dose 1 µM)",107%,102%,104%,126%,113%,97.7%,82.1%,93.3%,110%,95.3%
